Laboratory results reported in the supplement of paper PMC12632987.
In all, about 1,800 sequences were measured (“median log2 fold change of GCK-ALFA target abundance (FLAG IP / Myc IP barcode read proportion)”: median about 0.14, lowest 2% from about -0.84 on). This is one part of the list.

T1: TRAF2, Q12933
T1 chain: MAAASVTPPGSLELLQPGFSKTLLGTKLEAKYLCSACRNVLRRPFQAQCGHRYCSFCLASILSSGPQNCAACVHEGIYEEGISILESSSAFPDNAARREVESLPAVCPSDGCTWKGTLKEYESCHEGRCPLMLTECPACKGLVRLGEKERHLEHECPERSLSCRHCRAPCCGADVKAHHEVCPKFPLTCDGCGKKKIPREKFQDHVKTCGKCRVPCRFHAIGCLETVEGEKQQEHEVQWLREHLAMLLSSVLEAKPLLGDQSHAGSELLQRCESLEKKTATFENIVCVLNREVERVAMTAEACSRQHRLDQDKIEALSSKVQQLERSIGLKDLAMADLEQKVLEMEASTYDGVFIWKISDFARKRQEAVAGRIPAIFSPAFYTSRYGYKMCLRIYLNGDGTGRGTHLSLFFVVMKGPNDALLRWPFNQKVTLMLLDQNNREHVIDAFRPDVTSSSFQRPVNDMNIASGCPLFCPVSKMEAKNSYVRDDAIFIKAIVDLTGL

B1: traf2_out_9_17_2607 (protein)
chain: SALEEKKREAILEAAEEVLKELVEEGYITEEQAEEILKKVKELIEEGKSPEEIVASFLGDIASTLLTKSDLPLSEVNKVVGEAYRRLRERLAEAEEELAA
B2: traf2_out_11_169_836 (protein)
chain: KEQEKNRKINDKALELNDKAKEELKKFALKLAKEAGLDVEEIEKIFEENKGKSFSYIAGKLIDYFTSQGKEEAAKAILEKYEELKDKINKEATAFIKSLE
B3: traf2_out_13_95_1109 (protein)
chain: SKETAEKIMEVADEMLDKVEELLEKLLEKAKAAGKLEEEVQEALDLAKYRSINEAIHLLEELAKKYPEFKEEFEKTIEEIKALKREAGRKVAEILKEEKE
B4: traf2_out_6_3_2526 (protein)
chain: DEESLRRDARRVLENMGITTAEQLKALVKAEVNAVKKVASRPDIDQADIAGLRSVLALARAMVDVAAEELPDVTEEDVKEMNALIAEAEALVEAKAKELA
B5: traf2_out_13_95_1226 (protein)
chain: SAEANEKLREVSNEMLDRAEAVVDALEAQLAPHPELQPAMAAVRRALREQGIRAAIAQLRAAAAQFPEVAALLDAAAAELEAIRREAGRRVAEILKEEKE
B6: traf2_out_10_21_630 (protein)
chain: SEEREKALEIVKEYIESGEAPYVAALLAAELILREKGVDVETMGEILHALAKELKKLSDEEVLELAKKYYEAIENKDEEEIEKLLEELKKLAEEEKEKKA
B7: traf2_out_16_171_1439 (protein)
chain: MKEEEEKKLKEEIEREAEELIERLETAVEMTPLIMKETGLSKEQIAKGVRSTFTDRIEHLEKIWEEKSKNASEEVKKFIKEELERVKKALEEAIKKILAI
B8: traf2_out_12_187_945 (protein)
chain: SVQDELIAAAKAALERAIKALEKVAPTSEEAKEFLEKLKKIAELMEKHPELAADANVAASAVLRWVRLVEAGAPAEEIAAAAARAKEILEEVLKEAEKLA
B9: traf2_out_13_95_1045 (protein)
chain: SKELAEKIMEISDEMLDKVLELLEKAKEEAKDDPEAVKVFDEAKRLALTRGINEAIHLLEEAKKAHPEHKELFDRTIKELREIRREAGRKVAELIKEEKE
B10: traf2_out_20_3_2132 (protein)
chain: EELKKELEKEIEKAIKLLKEAAKLADPERAKELEKLIKKLKESEKLPLSDQLVVLSEIRREVLRMAEEARKEGKEELAKVLEEAADAINKAMNLLMKLIE
B11: traf2_out_13_95_1185 (protein)
chain: EKEKTEKLRKETNAIADRLIDRAEELAKRIEEETGRPEFRDRILRALRRGGVRAAVHLIRELAEEHPEHREVFERAAAELEAAIREAGREVAKIEKEIEE
B12: traf2_out_11_79_929 (protein)
chain: SELREELRRLLEEARRLLEELIEKMKAGKISPEEWRRMLEEILRLLQRAAQLALELGLSDVLVHISEARRHVLLAEDGDLEQLEEALRHVEEALRELERE
B13: traf2_out_11_169_794 (protein)
chain: EEQEKNREINDFALELNDEAKERLKEFALELAKEAGLDVAAVEAIFEANKNASLSAVAAALIEWFKSQGAEEAAKKVEEKYEELKEEINKKATEKIKELE
B14: traf2_out_17_162_1607 (protein)
chain: EELEKEIKELEEKLKKLREELKRLKEKLKRIDELSKEELTDLLVEASEARREALEALERIEELKEKLDKELYEKLSKEFEKLAEEFQRIANEFYKKLEEK
B15: traf2_out_17_162_1575 (protein)
chain: EELEKRLEELKKRLEELEKELEEFKKKLPDIPKMSYEELTDLLVEVSEKKREARELAEEIRELGEKLGSEELRELAERAERLAEEFNRIANKIYKEIEKK
B16: traf2_out_16_104_1389 (protein)
chain: SAATDAAFAAIIAELEKIAEEAQKLANEIYKLYEKASEEKKTELSDLLVEVSELKREALEAAEAARAARAAGGDVAEAQAALERLKKKLKELKEKLKELK
B17: traf2_out_18_167_1851 (protein)
chain: EEEIRKKREELSDRLVQLSEVKRAARAALQALETDPSLVPAELARLAEAAASIPELQPLVAAARAALEAGDREGLRATLEALIEKAQKLMNEVLKEYEKL
B18: traf2_out_11_155_745 (protein)
chain: EERLKLLQEMNDKIMELFDEAREKALEIARKAAEKHPEHKEAIEAKIEATKGFSYRSFILELIRLFKELGLEEEAEELEKLLEETQKEANKIVQETEEKL
B19: traf2_out_3_89_2303 (protein)
chain: MEEEKKKIEEARKIAEAYLKGFEKSLRFVAKEMIEDGMSLETLKGVAEAARNALLEEFRESLKERGLSEEEIEKLVKELEEELEKVVEEVIEEAEKRRKE
B20: traf2_out_20_3_2112 (protein)
chain: EELEKELKEELKKAEELLKEAAKLADPETAKKLKELAKRLKESEKLSYTDRLVVVSEIKREVLLLQQEAEKAGKKELAKVLEKAAEALNKAANLLMKIIE
B21: traf2_out_13_95_1080 (protein)
chain: SKETNEEIMKIADEMLEKSEKILKELIKKVADNPEAKAAVEKALHLNETQGINAAIHLLKELAKKNPEYKELLNEAIEKLEKIRREAGRKVAELLKKEEE
B22: traf2_out_17_162_1551 (protein)
chain: SALEEELERLEEELRRLEEELERLKKELENLEKKSKEELTDLLVEASEARRRARELAERLRELEPLIGEERAGELRERAEEIAEELQRIANKIYKELEKK
B23: traf2_out_20_3_2148 (protein)
chain: SELEEELKKELEEALKILEEASKLADPKTAKKLDKLKKKLEESEKLSYSDRLVVVSEVRREVRLLSQEAKAAGKEKLAKLLEEAAEKLNRAANLLMKIIE
B24: traf2_out_16_104_1416 (protein)
chain: AAATAARFDEIIARYEEIAEEAQRIANELYELYLKASPEKKKELSDLLVEVSELRREALEARLEVERARATGGDLAAHEARLEELEKRLEELKKEAEKLK
B25: traf2_out_13_95_1115 (protein)
chain: SKELAEKIMEISDKALDQANALLDALEAKIKASGKLAPEVAAALAAAKKSTISTAIHTLKELAKKYPEFKADFEATIAQLEQIRRDAGREVAKLIKEEKE
B26: traf2_out_18_117_1771 (protein)
chain: SEREKIIKELEELAERLARAASELGKAVLEHWEELTPEEKSEAMDVLADLSEVRREALLLIHRIKEEGLPVEEARKRFEELKKRAEEALKAAEARIKRIE
B27: traf2_out_17_178_1699 (protein)
chain: SKEALRAEISALTDELIDLTDRYGTELLARARAEGVLSPEELAALEAALASGSNRTFLATAEEILPRSAASPETLALLEEFKEERRRLEKKIAEAYEKYE
B28: traf2_out_18_167_1835 (protein)
chain: EEEKEKKRNELLDEMIDISEHYRAAIEYLELLAKDPKEAEAKKEEYMKKIDKDPELVAKIKEVLALPDEERKKAAKALADEVYDERQKKMQELWDKREAV
B29: traf2_out_18_3_1919 (protein)
chain: SEEERKEISEKIDEIVDEATARAREALDRGLAEHPEFAAEFERLRADLDAGAGPFGILDALAELFRRAGDEAAAAELEAFLREKRKELQELVDKYEELLK

Target: T1, TRAF2, Q12933
Assay: median log2 fold change of GCK-ALFA target abundance (FLAG IP / Myc IP barcode read proportion) (log2 ratio); each designed protein is fused to an ALFA-tag nanobody in HEK293 cells to bring the named protein to FLAG-tagged glucokinase (GCK); Myc marks an untargeted standard; higher = target protein stabilised (more abundant)
Conditions: target protein: 3xFLAG-MCP-GCK-ALFA reporter; HEK293 landing pad (RPLP)
Method: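 LABEL-seq trans screen in HEK293 landing-pad cells. Each de novo designed 100-aa effector handle, binding the indicated effector (E3 ligase, DUB or autophagy protein), is fused to a constant NbALFA target handle and induced with 2 ug/mL doxycycline. A FLAG-MCP-GCK-ALFA target and a Myc-MCP standard reporter were transfected, and after 48 h circRNA barcodes were recovered by anti-FLAG and anti-Myc IP and sequenced. The value is the median across barcodes (at least 3 per design) of log2(FLAG/Myc read-proportion ratio), with the two transfection replicates pooled. Negative values mean degradation and positive values mean stabilisation of the target.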

| Binder | median log2 fold change |
| --- | --- |
| B1 | 0.235 |
| B2 | 0.2 |
| B3 | -0.738 |
| B4 | -0.0761 |
| B5 | -0.0202 |
| B6 | 0.313 |
| B7 | 0.062 |
| B8 | 0.258 |
| B9 | -0.493 |
| B10 | 0.365 |
| B11 | 0.0827 |
| B12 | -0.224 |
| B13 | 0.568 |
| B14 | 0.299 |
| B15 | 0.308 |
| B16 | 0.342 |
| B17 | 0.103 |
| B18 | 0.0401 |
| B19 | -0.145 |
| B20 | 0.339 |
| B21 | -0.2 |
| B22 | 0.0543 |
| B23 | 0.264 |
| B24 | 0.286 |
| B25 | -0.178 |
| B26 | -0.0427 |
| B27 | 0.224 |
| B28 | 0.297 |
| B29 | 0.19 |
